In all, about 310,000 compounds went through this assay and about 14,000 (4.5%) showed an effect of 50% or more. The effect is printed as a negative number. The list shows a part of the results.
These compounds were tested against human ether-à-go-go-related gene (hERG) potassium channel (human, UniProt Q12809) (assay: primary screen, population patch clamp on CHO cells stably expressing hERG).
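Also: peak tail current of the secondary pulse compared with the same well before compound.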

Sequence of human ether-à-go-go-related gene (hERG) potassium channel (Q12809 whole entry, looked up): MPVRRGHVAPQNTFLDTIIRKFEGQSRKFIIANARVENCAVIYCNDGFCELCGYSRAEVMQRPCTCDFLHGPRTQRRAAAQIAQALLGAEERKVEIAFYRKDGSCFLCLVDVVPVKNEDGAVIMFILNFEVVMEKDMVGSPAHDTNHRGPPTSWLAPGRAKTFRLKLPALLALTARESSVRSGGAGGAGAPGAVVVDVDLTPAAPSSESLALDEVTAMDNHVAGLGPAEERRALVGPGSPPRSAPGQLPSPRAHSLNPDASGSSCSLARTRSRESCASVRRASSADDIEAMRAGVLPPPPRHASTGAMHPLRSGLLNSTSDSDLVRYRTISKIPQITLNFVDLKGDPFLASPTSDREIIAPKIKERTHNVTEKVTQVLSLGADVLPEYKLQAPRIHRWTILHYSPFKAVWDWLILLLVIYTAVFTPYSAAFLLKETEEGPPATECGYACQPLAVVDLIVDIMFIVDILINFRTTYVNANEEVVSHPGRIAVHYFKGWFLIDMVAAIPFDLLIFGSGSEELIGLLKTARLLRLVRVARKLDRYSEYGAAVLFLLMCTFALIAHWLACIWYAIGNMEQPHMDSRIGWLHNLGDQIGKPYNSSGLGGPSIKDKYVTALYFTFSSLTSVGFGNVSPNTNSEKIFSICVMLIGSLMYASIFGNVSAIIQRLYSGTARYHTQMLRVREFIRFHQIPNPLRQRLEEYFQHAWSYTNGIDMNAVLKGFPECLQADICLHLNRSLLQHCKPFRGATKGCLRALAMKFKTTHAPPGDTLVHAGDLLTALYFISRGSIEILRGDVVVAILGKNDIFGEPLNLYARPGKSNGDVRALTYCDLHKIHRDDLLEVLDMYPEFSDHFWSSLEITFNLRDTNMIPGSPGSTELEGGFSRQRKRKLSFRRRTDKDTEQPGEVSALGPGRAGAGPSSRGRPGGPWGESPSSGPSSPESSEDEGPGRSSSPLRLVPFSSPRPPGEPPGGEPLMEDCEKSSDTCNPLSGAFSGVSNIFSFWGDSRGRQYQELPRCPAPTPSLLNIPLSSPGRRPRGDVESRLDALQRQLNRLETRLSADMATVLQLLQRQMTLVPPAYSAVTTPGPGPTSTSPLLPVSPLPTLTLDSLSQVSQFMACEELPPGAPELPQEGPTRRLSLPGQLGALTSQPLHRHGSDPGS

SMILES	hERG current change (%, negative = inhibition) at 10uM [%]
COc1cc(C)nc(-n2nc(C)cc2OC)n1	14.6
CC(C)(C)c1cc(OC(=O)c2ccccc2F)ccc1O	-26.2
CCn1cc(CNCc2c(C(=O)N3CCCCC3)nc3c(C)cccn23)cn1	-21.1
Fc1ccc(Nc2ccnc(C(F)(F)F)c2)cc1	2.74
Cc1ccc(NS(=O)(=O)c2ccc(Br)cc2)nc1	17.1
COCCN1CCN(C(=O)C2CCC(=O)N(Cc3ccc(Cl)cc3)C2)CC1 (stereo not shown)	-1.8
CCc1ccc(/C=C2\SC(N3CCCC3)=NC2=O)cc1	-46.9
COc1cc2c(cc1OC)CN(C(=O)CN1CCN(S(=O)(=O)c3ccccc3Br)CC1)CC2	-45.5
CC(C)(C)c1cc(C(=O)NC2CC2)n(Cc2ccc(F)cc2)n1	5.31
CCOC(=O)Cn1nnnc1CN(Cc1cccs1)Cc1cc2cc(C)cc(C)c2[nH]c1=O	-22.8
CN1C(=O)[C@H]2[C@@H](/C=C/c3ccccc3)N3C(=O)CN(CC4CC4)C(=O)[C@@]3(C)[C@H]2C1=O	12
O=C(NNC(=O)c1cc2cc3ccccc3nc2s1)c1cccc(C(F)(F)F)c1	8.19
COc1ccc(CC(=O)Nc2c3c(nn2-c2cccc(Cl)c2)CS(=O)C3)cc1 (stereo not shown)	-37.1
NC(=O)c1ccccc1NC(=O)C(c1ccccc1)c1ccccc1	0.258
CNc1ccc([N+](=O)[O-])cc1C(=O)O	2.21
COC(=O)c1sccc1NC(=O)C1C2C=CC(O2)C1C(=O)O (stereo not shown)	5.99
CCCCNC(=S)NNC(=O)c1ccc2c(c1)OCO2	5.46
Cn1ccnc1SCC(=O)Nc1nc2c(F)c(F)c(F)cc2s1	11.3
CCOC(=O)N1CCN(CC(=O)Nc2c(C(=O)OC)[nH]c3ccccc23)CC1	-10.2
CCCCC(C(=O)NC(C)(C)C)N(Cc1ccccc1)C(=O)c1snc(C(N)=O)c1N (stereo not shown)	-15.8
Fc1ccc(-c2ccc(-c3nn4c(-c5ccco5)nnc4s3)o2)cc1	-3.26
Cc1cccc(C(=O)NNC2=C(C(=O)C(F)(F)F)CCC2)c1O	27.9

SMILES	hERG current change (%, negative = inhibition) at 10uM [%]
C=CCC(O)(CC=C)CNC(=O)C1CCC(=O)N(CCCc2ccccc2)C1 (stereo not shown)	0.253
COC(=O)c1ccc(Cn2nc(-c3ccc(C)cc3)ccc2=O)cc1	23.5
CCOC(=O)c1cc(-c2ccccc2)sc1NC(=O)CSc1nnc(N)s1	13.3
COc1ccc(NC(=O)c2cc(Br)ccc2Cl)c(OC)c1	-5.12
O=C(O)C1CCN(C(=O)c2ccccc2N2C(=O)[C@@H]3Cc4c([nH]c5ccccc45)C(c4cccc(Cl)c4)N3C2=O)CC1 (stereo partly shown)	8.89
CON/C=C(\C=Nc1ccc(Cl)cc1Cl)c1ncc(C(F)(F)F)cc1Cl	8.82
CCOC(=O)c1cnc(-c2ccccc2O)nc1Cl	-3.07
FC(F)(F)c1cnc(-c2cnc3c(-c4ccc(Cl)cc4)cnn3c2)c(Cl)c1	-5.19
COc1cccc(NC(=O)C2C3C=CC(O3)C2C(=O)O)c1 (stereo not shown)	10.6
CC1(NC(=O)NCc2ccco2)CCS(=O)(=O)C1 (stereo not shown)	-9.21
O=C(CNc1ccc(Oc2ccccc2)cc1)N1CCOCC1.O=C(O)C(=O)O	-17.4
COc1cccc(N2CCN(CC(=O)NCc3ccccc3)CC2)c1	-5.53
C#CCOCCOCCOCCNc1nc(N2CCN(C(=O)[C@H](CCCC[NH3+])n3cc(CCC(=O)O)nn3)CC2)nc(N2CCN(C(=O)[C@H](CCCC[NH3+])n3cc(CC(C)O)nn3)CC2)n1.[Cl-] (stereo partly shown)	14.7
CC(=O)c1cnn(-c2ccc(Cl)cc2)c1C	7.34
CC(NC(=O)C1CCC(=O)N1Cc1ccc(F)cc1)c1ccc2c(c1)OCCO2 (stereo not shown)	2.62
CS(=O)(=O)N(CCc1ccccc1)CC(=O)NCC1CCCO1 (stereo not shown)	8.98
O=C(COC(=O)c1ccccn1)Nc1ccc(S(=O)(=O)N2CCOCC2)cc1	-0.019
COc1ccc(Nc2nc(C)cc(=O)[nH]2)cc1	19.6
CC1CCCN(C(=O)C(=O)c2cn(CC(=O)N3CCCCCC3)c3ccccc23)C1 (stereo not shown)	17.2
CN(CC(=O)Nc1c(Cl)cccc1Cl)C(=O)CC1Sc2ccccc2NC1=O (stereo not shown)	-18.3
COc1cc2c(cc1OC)C(c1cc(Br)ccc1O)N(C(C)=O)CC2 (stereo not shown)	10.3
